In all, about 350,000 compounds went through this assay and about 260 (0.074%) were called active. The inconclusive results got no clear call from the source; some entries with a clear call stand among them for comparison. Calls come from the whole dose curve; as a rule, active = well fitted inhibition curve with a large enough effect; inconclusive = small, poorly fitted or top-dose-only effect; inactive = no such curve, though single readings can be large or run the other way. Potencies of inconclusive entries are doubtful fits and often do not repeat.
target: Ferritin light chain (Equus caballus) (UniProt P02791); experiment: qHTS Assay for Identification of Novel General Anesthetics; conditions: apoferritin/1-aminoanthracene competitive binding, fluorescence; series mostly up to 77.5 µM; note: nearly all actives have a fitted effect of over 20% in size
Summary of the method: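 Apoferritin-based anesthetic binding model; compound displacement of fluorescent 1-AMA measured as endpoint fluorescence after 10 minutes at room temperature, scaled to free-ligand and complex controls.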
Potency is the fitted concentration of half-maximal effect; tags give direction and shape of the fitted curve.

UniProt P02791, sequence (P02791 whole entry, looked up): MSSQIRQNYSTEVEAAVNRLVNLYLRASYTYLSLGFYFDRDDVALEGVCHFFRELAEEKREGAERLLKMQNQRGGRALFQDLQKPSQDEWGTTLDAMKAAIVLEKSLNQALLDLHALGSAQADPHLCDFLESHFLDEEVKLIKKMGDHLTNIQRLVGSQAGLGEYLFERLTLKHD

Potency, inactive:
CN(C)C=Nc1ccc2nc3c(cc2c1)[nH]c1ccccc13, Cc1ccc(NC(=O)CSC2=C(C#N)C(c3ccc4c(c3)OCO4)C3=C(CCCC3=O)N2)c(C)c1 (centres undefined), Cc1nn(C)c(C)c1S(=O)(=O)N(CC(=O)NCCc1ccc(Cl)cc1)c1ccc(C(C)C)cc1, COc1ccc2[nH]c(C(=O)O)c(CCN3C(=O)c4ccc(C(=O)O)cc4C3=O)c2c1, CC(C)CN(C(=O)COC(=O)c1ccc2c(c1)NC(=O)CS2)C1CCS(=O)(=O)C1 (centres undefined), CCCCNC(=O)c1c(O)c2cccc3c2n(c1=O)CCC3, O=C(CNC(=O)c1ccc(F)cc1)N/N=C/c1cc(Br)ccc1OC(=O)/C=C/c1ccco1, CCC(C)c1ccc(NC(=S)N2CCN(c3ccccn3)CC2)cc1 (centres undefined), COc1ccccc1CNC(=O)CSc1nc(-c2ccc(OC)c(OC)c2)cc(C(F)(F)F)n1, Cc1c(C)n(Cc2ccccc2)c2ccc(C(=O)NCC(C)c3ccccc3)cc12 (centres undefined), CCOc1ccc(CCNC(=O)c2ccc(-n3c(C)cc4c3CCCC4)cc2)cc1OCC

Potency, inconclusive:
O=C(Nc1cccc(Cl)c1)c1cccc(N2C(=O)C3CC=CCC3C2=O)c1 (centres undefined) 50.1 µM [inhibitor, single point], CCN1CCOC(=O)C1CC(=O)Nc1ccc(C)c(Cl)c1 (centres undefined) 28.2 µM [inhibitor, partial curve], Cc1cc(C)nc(NS(=O)(=O)c2ccc(NC(=O)c3cc(=O)c4ccc(C)c(C)c4o3)cc2)n1 39.8 µM [inhibitor, partial curve], Cc1ccccc1-c1nc2scc(CCNC(=O)C(=O)Nc3ccc(F)cc3F)n2n1 14.1 µM [inhibitor, partial curve], CCc1ccc2oc(-c3ccc(OC)cc3)cc(=Nc3cccc(C(=O)O)c3)c2c1 35.5 µM [inhibitor, single point], NC(=O)CC(NC(=O)c1cccc(Br)c1)c1ccc(N2CCC(Br)CC2)c([N+](=O)[O-])c1 (centres undefined) 39.8 µM [inhibitor, single point], O=C(Nc1ccc(Br)cc1)N1CCCCCC1 15.8 µM [inhibitor, partial curve], Cc1cc2c(cc3c(SCc4cccc(F)c4)nnc(C)n32)o1 10 µM [inhibitor, partial curve], O=[N+]([O-])c1ccc(C2CC(c3ccccc3)=Nc3ccccc3S2)cc1 (centres undefined) 11.2 µM [inhibitor, partial curve], O=C(Nc1ccc(Br)cc1)C1CC=CCC1C(=O)OCC1CCCO1 (centres undefined) 12.6 µM [inhibitor, partial curve], Cc1ccc(C(=O)NC(=S)Nc2ccc(S(=O)(=O)N3CCN(C)CC3)cc2)cc1 31.6 µM [inhibitor, partial curve], CCCCOc1ccc(C2=NC(c3cccs3)=Nc3ccc(OC)cc3N2)cc1 22.4 µM [inhibitor, partial curve], CCOC(=O)CSc1nnc(CNC(=O)c2cccs2)n1CCc1ccccc1 28.2 µM [inhibitor, partial curve], CCOC(=O)c1cc2c(C)n(-c3ccc(C)cc3)c(C)c2ccc1=O 39.8 µM [inhibitor, partial curve], CC(C)(C)c1ccc(NC(=O)Cn2cnc3cc([N+](=O)[O-])ccc3c2=O)cc1 28.2 µM [inhibitor, partial curve], CC(C)CCOc1ccc(C2(C)NC(=O)N(CN3CCOCC3)C2=O)cc1 (centres undefined) 12.6 µM [inhibitor, partial curve], CC1Cc2ccccc2N1C(=O)C1CCCN(S(=O)(=O)c2cccc3nsnc23)C1 (centres undefined) 20 µM [inhibitor, partial curve, poor fit], O=C(Nc1nc(-c2ccccn2)cs1)c1ncc(Cl)c(Cl)c1Cl 31.6 µM [inhibitor, single point], CCOc1ccc(C2C(C(=O)Nc3ccccc3)=C(C)N=c3s/c(=C/c4cccc(OCC(=O)O)c4)c(=O)n32)cc1 (centres undefined) 15.8 µM [inhibitor, partial curve], CC1=Nc2ccccc2/C1=C\c1nc(-c2ccc(F)cc2)oc1O 5.62 µM [inhibitor, partial curve], Cc1ccc(CSc2nnc([C@@H](N)C(C)C)o2)cc1 28.2 µM [inhibitor, single point], ClC1(Cl)CC1Cn1cnc2ccccc21 (centres undefined) 25.1 µM [inhibitor, partial curve], COc1ccccc1NCc1ccc([N+](=O)[O-])s1 28.2 µM [inhibitor, partial curve], Cc1ccc(NC(=S)NCc2ccc3c(c2)cc(C)n3C)c(C)c1 22.4 µM [inhibitor, partial curve], O=C1C2CCCN2c2ccc(S(=O)(=O)N3CCOCC3)cc2N1Cc1cccc(C(F)(F)F)c1 (centres undefined) 15.8 µM [inhibitor, partial curve], CCOC(=O)Cc1csc(NC(=O)/C=C/c2ccc(OC)cc2)n1 31.6 µM [inhibitor, partial curve], O=C(N/N=C/c1ccccc1)c1ccc(OCc2ccccc2)cc1 3.16 µM [inhibitor, full curve], COCCCn1c(SCC(=O)OC2CCCCC2)nnc1-c1ccco1 31.6 µM [inhibitor, partial curve, poor fit], COc1ccc2oc(C(=O)OCC(=O)N3C(C)CCCC3C)c(C)c2c1 (centres undefined) 31.6 µM [inhibitor, partial curve], CCN(CC)c1ccc(C(=O)NCc2nc3cccnc3n2Cc2ccc(C)cc2)cc1 7.94 µM [inhibitor, full curve], NS(=O)(=O)c1ccc(NC(=O)COC(=O)COc2ccc(Cl)cc2)cc1 17.8 µM [inhibitor, partial curve], O=C(NCCCN1CCN(c2cccc(Cl)c2)CC1)c1nc(-c2ccncc2)no1 39.8 µM [inhibitor, single point], COc1ccc(OCc2cc(C(=O)NCc3cccc(C)n3)no2)c(Cl)c1 50.1 µM [inhibitor, single point], COc1cccc(C2c3c(-c4cc(Cl)c(C)cc4O)n[nH]c3C(=O)N2Cc2cccnc2)c1 (centres undefined) 14.1 µM [inhibitor, partial curve], CCSc1ccccc1C(=O)N1CCN(c2ccc([N+](=O)[O-])cc2)CC1 28.2 µM [inhibitor, partial curve], O=C(CCCC(=O)NC1CCCCC1)Nc1ccc([N+](=O)[O-])cc1 22.4 µM [inhibitor, partial curve], O=C(CNCc1cccs1)Nc1ccc(S(=O)(=O)N2CCCCC2)cc1 31.6 µM [inhibitor, single point], Cc1nc2cc(-c3ccccc3)ccc2o1 39.8 µM [inhibitor, partial curve], Cc1cc(NC(=O)CN2CCCCCCC2)no1 28.2 µM [inhibitor, partial curve], Cc1csc(NC(=O)CSc2ncc(-c3ccccc3)[nH]2)n1 31.6 µM [inhibitor, single point], Cc1cccc(Nc2nc3c(s2)CCCC3)c1 22.4 µM [inhibitor, partial curve], Cc1ccc(C(=O)N2CCCC2)cc1Br 50.1 µM [inhibitor, single point], COC(=O)c1sccc1S(=O)(=O)N(CC(=O)Nc1cc(C)ccc1C)c1ccc(C)c(C)c1 10 µM [inhibitor, partial curve], Cc1ccc(OCC(=O)N(C)CC(=O)Nc2cccc(F)c2)cc1 25.1 µM [inhibitor, partial curve], CCOCCCNCc1ccc(OCc2ccc(F)cc2)c(OC)c1 28.2 µM [inhibitor, partial curve], CCn1c(SCC(=O)Nc2nc(-c3ccccc3)cs2)nnc1-c1ccccc1O 4.47 µM [inhibitor, full curve], Cc1cc(=O)[nH]c(SCC(=O)Nc2nc3c(s2)CCCC3)n1 50.1 µM [inhibitor, single point], CC(C)(C)c1ccc(OCCCNC2CCCC2)cc1 39.8 µM [inhibitor, partial curve], Fc1cccc(CN2CCCCCCC2)c1 31.6 µM [inhibitor, partial curve], Cc1ccc(NN2C(=O)C=C(c3ccccc3)C2=O)cc1 31.6 µM [inhibitor, partial curve], O=C(Nc1ccc(S(=O)(=O)N2CCCCC2)cc1)c1ccc(CN2CCc3ccccc3C2)cc1 12.6 µM [inhibitor, partial curve], Clc1ccc(Cc2ccc(SCc3ccccc3)nn2)c(Cl)c1 15.8 µM [inhibitor, partial curve], CCOCCc1nnc(NC(=O)C(=O)c2cc(C)n(-c3ccc(C)c(C)c3)c2C)s1 8.91 µM [inhibitor, partial curve]
